# Results published in PubChem BioAssay AID485344 (National Center for Advancing Translational Sciences (NCATS), 2010).
# The whole screen tested about 340,000 compounds, of which about 6,900 (2%) were called active. Cut-off read from the data, not from the text of the source: active = inhibition above about 30%; inactive = below that, where a call was filed. This is a selection; strong and weak results do not stand in their true shares. Entries without a call were filed so in the source.
# Biological target: D(2) dopamine receptor (Homo sapiens) (UniProt P14416)
# Assay: HTS Assay for Allosteric Antagonists of the Human D2 Dopamine Receptor: Primary Screen for Antagonists; note: 0% is about no effect
# Conditions: HEK293 TREx D2 cells, calcium flux, dopamine EC80; at 10 µM; stronger effect = higher value
# Procedure, shortened: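 Cells plated overnight at 30 C with tetracycline; no-wash calcium dye, 30–90 min RT; 10 s baseline; compound pinned; 180 s read; EC80 dopamine added; another 180 s read.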
# UniProt P14416, sequence (P14416 whole entry, looked up): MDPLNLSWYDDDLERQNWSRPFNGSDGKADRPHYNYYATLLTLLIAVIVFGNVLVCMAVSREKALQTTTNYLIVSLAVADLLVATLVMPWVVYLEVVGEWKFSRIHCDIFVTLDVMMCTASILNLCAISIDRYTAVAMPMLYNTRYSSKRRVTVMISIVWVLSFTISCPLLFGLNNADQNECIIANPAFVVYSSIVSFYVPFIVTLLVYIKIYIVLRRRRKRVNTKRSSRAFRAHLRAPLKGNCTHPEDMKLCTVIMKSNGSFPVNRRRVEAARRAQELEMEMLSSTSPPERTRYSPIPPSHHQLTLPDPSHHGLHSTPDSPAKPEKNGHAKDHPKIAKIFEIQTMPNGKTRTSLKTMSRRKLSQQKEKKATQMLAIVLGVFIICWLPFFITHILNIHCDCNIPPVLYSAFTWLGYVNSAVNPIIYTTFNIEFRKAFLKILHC
row,SMILES,inhibition
1,COc1ccc(CNC(=O)c2cc(-c3ccc(OC)cc3)on2)cc1,9.36%
2,Cc1nc(SC(C)C(=O)Nc2ccccc2C)cc(-c2ccccc2)n1 (configuration not stated),5.96%
3,CC1Sc2ccc(S(=O)(=O)CCC(=O)Nc3ccc(C(C)C)cc3)cc2NC1=O (configuration not stated),active: 52.1%
4,COCCn1nnnc1SCC(=O)N1CCCCC1,active: 34.2%
5,CCN(CC)c1cc(C)c2cc(NC(=O)c3cccc(OC)c3)ccc2n1,-4.85%
6,Cc1cccc2nc(-c3ccco3)c(Nc3ccc4c(c3)OCO4)n12,-7.66%
7,Cc1cccc(OC(C)C(=O)Nc2ncn[nH]2)c1 (configuration not stated),-6.26%
8,CCc1ccc(NC(=O)c2ccc3c(O)c(S(=O)(=O)c4ccc(Cl)cc4)c(=O)[nH]c3c2)cc1,1.52%
9,CCCCN(CC)CCCNC(=O)c1sc2nc(C)cc(C)c2c1-n1cccc1,6.36%
10,COCc1cc(=O)n2c([nH]c3ccccc32)c1C#N,active: 36.9%
11,COc1ccc(CN(C(=O)COc2ccccc2OC)C2CCS(=O)(=O)C2)cc1 (configuration not stated),-10.7%
12,Cc1ccc(C)c(NC(=O)CN2C(=O)CCc3ccccc32)c1,-16.8%
13,CC(=O)c1ccc(OC(=O)COc2ccccc2Cl)cc1,active: 47.8%
14,CCCCOc1ccc(C(=O)NCCS(=O)(=O)N2CCN(c3ccc(F)cc3)CC2)cc1,-11.1%
15,CCc1cnc2c(c1SCC(=O)N1CCCCC1)c(=O)n(C)c(=O)n2C,-5.2%
16,CCOc1ccc(CNCc2c(C(=O)O)n(Cc3ccccc3F)c3cc(OC)ccc23)cc1,-24.7%
17,COc1ccc(-c2cc(C(=O)O)n(Cc3ccccc3)n2)cc1,-22.3%
18,COc1ccc(C(=O)NC2(C(F)(F)F)C(=O)NC(C)=C2C#N)cc1OC (configuration not stated),-4.29%
19,CCC(=O)N1CCc2cc(Br)cc(S(=O)(=O)N3CCC(C(=O)Nc4ccc(OC)cc4)CC3)c21,18.6%
20,COc1ccc(NC(=O)CSc2nc(-c3cccs3)cc(C(F)(F)F)n2)cc1OC,-12.3%
21,O=C(CSc1nc2ccccc2nc1Cc1ccccc1)NCc1ccccc1Cl,7.55%

row,SMILES,inhibition
1,Cc1cc(C)c(NC(=O)Cn2c(=O)n(CC(=O)NCc3ccccc3Cl)c(=O)c3sccc32)c(C)c1,14.5%
2,CCc1ccc(CNC(=O)C2CCCN(c3nc4ccccc4o3)C2)cc1 (configuration not stated),active: 39.6%
3,CC(=O)c1cc2c(cc1N/C(=N/S(=O)(=O)c1ccc(C)cc1)c1ccccc1)OCO2,12%
4,COC(=O)c1ccc(NC(=O)CCS(=O)(=O)c2ccc(Br)cc2)cc1,13.4%
5,CCOC(=O)c1c(NC(=O)/C=C/c2ccc(OCC)cc2)sc(C)c1C,1.31%
6,COC(=O)C(NC(=O)CC(C)C)(Nc1nc2c(s1)CCCC2)C(F)(F)F (configuration not stated),-4.78%
7,CCOc1ccc(N2CC(NC(=O)CCc3ccccc3)CC2=O)cc1 (configuration not stated),-23.7%
8,Cc1ccc(C)c(N2CCN(C(=O)c3ccc(NC(=O)c4nsc5ccccc45)cc3)CC2)c1,-6.29%
9,CCc1ccccc1NC(=O)Nc1c[nH]c(=O)[nH]c1=O,2.82%
10,COc1cc(C(=O)Oc2c(Sc3ccccc3)c(C)nn2-c2ccccc2)cc(OC)c1OC,0.513%
11,Cc1ccc(/C=C/c2onc(C)c2S(=O)(=O)N2CCC(C(=O)Nc3ccc(C)c(N(C)C)c3)CC2)cc1,-5.51%
12,Cc1nnc(SCC(=O)NCCN2C(=O)CSC2=O)n1-c1ccccc1,active: 46.7%
13,Cc1ccc(CNC(=O)CCCCCn2c(=O)[nH]c3ccccc3c2=O)cc1,2.74%
14,Cc1nn(-c2ccccc2)c(OC(=O)C(C)C)c1Sc1ccc(Cl)cc1,7.12%
15,CC(=O)c1cccc(-n2c(=O)c3c4c(sc3n(CC(=O)c3ccccc3)c2=O)CN(C(C)=O)CC4)c1,-1.62%
16,Cc1nc(C)c(-c2ccc(SCC(=O)Nc3ccc(Br)cc3)nn2)s1,4.01%
17,Cc1ccc(C)c(CN2C(=O)c3ccccc3S(=O)(=O)c3ccc(C(=O)N(C)C4CCCCC4)cc32)c1,-18.2%
18,CC(=O)c1cc2c(cc1N/C(=N/S(=O)(=O)c1ccc(Cl)cc1)c1ccc(F)cc1)OCO2,-3.66%
19,CCn1c(C)c(C2N3CC4(C)CN2CC(C)(C3)C4=O)c2ccccc21 (configuration not stated),5.82%
20,CCc1nnc(NC(=O)CSc2nccn2-c2ccc(OC)cc2)s1,-10.8%
21,CSc1ccc(CCNC(=O)c2cnc3c(C)cccn3c2=O)cc1,16.2%

row,SMILES,inhibition
1,COc1cc(CNCc2ccccc2)c(Br)cc1OC1CCCC1,active: 50.9%
2,COc1ccc(NC(=O)c2cc(S(=O)(=O)N3CCOCC3)cn2C)c(OC)c1,active: 41%
3,CCOC(=O)Cn1c(=O)n(CC2CCCO2)c2nc(-c3ccc(C)cc3)nc(C(N)=O)c21 (configuration not stated),21.9%
4,CC(=O)c1ccc(S(=O)(=O)N2CCn3cccc3C2c2ccc(C)cc2)cc1 (configuration not stated),19.8%
5,O=C1C2CCCN2C(=O)N1CCCCN1CCN(c2cccc(C(F)(F)F)c2)CC1 (configuration not stated),active: 106%
6,Cc1ccc2nc3c(cc(C(=O)NCC4CCCO4)c(=N)n3C(C)C)c(=O)n2c1 (configuration not stated),11.3%
7,COc1ccccc1NC(=O)C(=O)NCC(c1ccc2c(c1)OCO2)N1CCOCC1 (configuration not stated),13.3%
8,COc1ccccc1/C=C/c1nc2ccccc2n1C(C)C,-11.4%
9,COc1ccc(Cl)cc1NC(=O)Cc1ccc(NC(=O)N2CCCCc3ccccc32)cc1,4.1%
10,COc1ccc(CNC(=O)Cc2c(C)c3cc4c(C)coc4c(C)c3oc2=O)cc1,-8.49%
11,Cc1ccc(-c2noc(C(C)NS(=O)(=O)c3ccc(C)cc3)n2)cc1 (configuration not stated),-22.6%
12,CN1C(=O)Cc2cc(S(=O)(=O)N3CCN(c4ccccc4F)CC3)ccc21,2.9%
13,O=C(Nc1cccc(Cl)c1)c1cnc2sc(N3CCCC3)nn2c1=O,-7.65%
14,Cc1ccc(C)c(CN2CCCN(Cc3ccc(F)cc3)S2(=O)=O)c1,0.406%
15,O=C(NCc1ccco1)c1ccc2c(c1)C(=O)c1ccccc1-2,active: 30%
16,O=C1/C(=C/C=C/c2ccco2)SC(=S)N1NS(=O)(=O)c1ccccc1,active: 41.7%
17,Cc1nc(-n2nc(C)c(Cc3ccccc3Cl)c2C)sc1C(=O)Nc1ccccc1F,10%
18,Fc1ccc(N2CCN(C3CCC(c4ccccc4)CC3)CC2)cc1 (configuration not stated),active: 53.3%
19,Cc1ccc(-n2c(Cc3ccccc3)nnc2SCc2nc(-c3cccs3)no2)cc1,7.39%
20,O=c1c2cc3c(cc2n(Cc2ccc(Cl)cc2)c(=O)n1Cc1nc(-c2ccccc2)no1)OCO3,-1.27%
